Hit rate of the full screen: of about 48,000 compounds, about 120 (0.25%) were called active. Inconclusive results (about 4%) are left out. The call rests on the fitted dose curve; in most records, active means well fitted activation curve with a large enough effect; inconclusive means small, poorly fitted or top-dose-only effect, or another doubt; inactive means no such curve, though single readings can be large or run the other way. This is one part of the list.

The test is described as follows: Primary qHTS for Identification of Small Molecule Activators of Huntingtin-Antisense Promoter Activity. Further: nearly all actives have a fitted effect of over 55% in size. Conditions: HEK293 HTT-AS promoter firefly luciferase reporter, 24 h; series mostly up to 57.5 µM; activity change, positive = activation: at the top concentration. Put shortly: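 HEK293 Fluc reporter, 2,500 cells/well, 24 h pre-culture; cpds up to 57.5 uM final, 24 h 37 degrees C; Dual-Glo, 10 min RT; normalized vehicle = 0%, zero RLU = -100%.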
Background: Quantitative high-throughput screening tests each substance at several concentrations.
As for `Cc1cccc(N2CCN(C(=O)c3cc4c(=O)oc5ccccc5c4s3)CC2)c1C`, the “activity change, positive = activation” value was inactive: -13.9%.

For the compound `Cc1cc(C(F)F)n2nc(C(=O)Nc3c(C)cccc3C)nc2n1`, the “activity change, positive = activation” value was inactive: -2.25%.

Consider `CCN(CC)c1cc(C)c2cc(NC(=O)c3ccccc3OC)ccc2n1`, for which the “activity change, positive = activation” value was inactive: -3.04%.

Take `Cc1cc(C)c(NC(=O)CSc2ccc(-c3sc(-c4ccccc4)nc3C)nn2)c(C)c1`: the “activity change, positive = activation” value was inactive: -7.63%.

As for `Cc1cc(C)c(NC(=O)CSc2nc3nc(C)cc(C)n3n2)c(C)c1`, the “activity change, positive = activation” value was inactive: -15.3%.

In the case of `CCCCn1c(SCC(=O)NCCCOC)nc2c(sc3ccccc32)c1=O`, the “activity change, positive = activation” value is inactive: -5%.

As for `CCn1c(=O)c2sccc2n2c(CCCC(=O)N3CCN(c4cc(Cl)ccc4C)CC3)nnc12`, the “activity change, positive = activation” value was inactive: 6.32%.

Consider `COc1ccc(-c2nnc(SCC(=O)NCc3ccc(C)cc3)nc2-c2ccc(OC)c(OC)c2)cc1OC`, for which the “activity change, positive = activation” value was inactive: -35.5%.

Consider `O=C(CSc1nc(-c2ccc(F)cc2)[nH]c1-c1ccccc1)NCC1CCCO1` (stereo not given), for which the “activity change, positive = activation” value was inactive: -25.2%.

For the compound `COc1ccccc1N1CCN(c2ncccc2-c2nc(-c3ccc(Cl)cc3)no2)CC1`, the “activity change, positive = activation” value is inactive: 5.54%.

Regarding `CCCCOc1cccc(C2c3c(oc4ccccc4c3=O)C(=O)N2c2ccccn2)c1` (stereo not given), the “activity change, positive = activation” value is inactive: -13.5%.

Take `CCc1ccc(C(=O)c2cn(CC(=O)Nc3ccc(OC)c(OC)c3)c3ccc(C)cc3c2=O)cc1`: the “activity change, positive = activation” value was inactive: -27.6%.

`CC1CCN(C(=O)CSc2nc(-c3ccccc3)no2)CC1`: the “activity change, positive = activation” value was inactive: 7.29%.

In the case of `COc1cc(C(=O)N2CCC(c3nc4ccccc4o3)CC2)cc(OC)c1OC`, the “activity change, positive = activation” value was inactive: -8.88%.

`Cc1c(NS(=O)(=O)c2ccccc2)cc(C(C)C)c(O)c1S(=O)(=O)c1ccc(Cl)cc1`: the “activity change, positive = activation” value is inactive: -46.8%.

For the compound `COc1ccc(C(c2c(O)cc(C)n(Cc3ccco3)c2=O)N2CCCCC2)cc1OC` (stereo not given), the “activity change, positive = activation” value is inactive: 5.98%.

As to `C(=C\c1ccccc1)/CN1CCN(C(c2ccccc2)c2ccccc2)CC1`, the “activity change, positive = activation” value was inactive: -12.3%.

As for `CCN(CC)CC(=O)Oc1ccc(NC(C)=O)cc1`, the “activity change, positive = activation” value is inactive: 2.27%.

Consider `COc1cc(Cl)c(C)cc1NC(=O)c1ccc2c(Cl)c3c(nc2c1)CCC3`, for which the “activity change, positive = activation” value is inactive: 8.95%.

As to `CCOc1cccc(CC(=O)N2CCc3c([nH]c4ccccc34)C2c2ccc(Cl)cc2)c1OCC` (stereo not given), the “activity change, positive = activation” value is inactive: -13.3%.

In the case of `COc1ccc(S(=O)(=O)N2CCC(Oc3ccc(-n4cnnn4)cc3)CC2)cc1OC`, the “activity change, positive = activation” value is inactive: -33.8%.

Regarding `CCOc1ccc(C(=O)c2cn(Cc3ccccc3OC)c3ccc(F)cc3c2=O)cc1`, the “activity change, positive = activation” value is inactive: -8.61%.

Regarding `Oc1c(C(c2ccccc2Cl)N2CCCC2)sc2nc(-c3ccco3)nn12` (stereo not given), the “activity change, positive = activation” value was inactive: -13.2%.

For the compound `CCOc1ccc(N(CC(=O)NCc2ccccc2Cl)S(=O)(=O)c2c(C)[nH]c(=O)[nH]c2=O)cc1`, the activity change, positive = activation was inactive: 24.4% [at 11.5 µM, percent change from vehicle, -100% = no light].

For the compound `CC(=O)Nc1ccc(NC(=O)CSc2nc3ccccc3nc2N2CCOCC2)cc1`, the “activity change, positive = activation” value is inactive: -16.6%.

Consider `CCc1ccc(NC(=O)CN(c2ccc(OC)cc2)S(=O)(=O)c2c(C)[nH]c(=O)[nH]c2=O)cc1`, for which the activity change, positive = activation is inactive: 7.03% [at 11.5 µM, percent change from vehicle, -100% = no light].

Consider `COc1ccc(-n2c(CC3C(=O)N(C)c4ccc(C)cc43)nc3ccccc3c2=O)cc1` (stereo not given), for which the “activity change, positive = activation” value is inactive: -2.14%.

With `COc1ccc(CCNc2ncnc3c2cnn3-c2ccc(C)cc2)cc1`, the “activity change, positive = activation” value is inactive: -1.07%.

Turning to `CN1C(=O)c2ccccc2Sc2ccc(NC(=O)COc3ccc(F)cc3)cc21`, the “activity change, positive = activation” value is inactive: -42.6%.

For `Fc1ccc(CN2CCc3nc(Nc4ccccc4)ncc3C2)cc1F`, the “activity change, positive = activation” value was inactive: -11.7%.

For `Cc1ccccc1C(=O)Nc1nnc(S(=O)(=O)N2c3ccccc3CC2C)s1` (stereo not given), the “activity change, positive = activation” value was inactive: -89.6%.

In the case of `O=C(NCc1ccco1)c1ccc2c(c1)N(Cc1cccc(Cl)c1)C(=O)c1ccccc1S2(=O)=O`, the “activity change, positive = activation” value was inactive: -22.3%.

Turning to `COc1ccc(-c2noc(CNC(=O)c3ccco3)n2)cc1`, the “activity change, positive = activation” value was inactive: -6.41%.

As for `Cc1ccc(CNC(=O)CSc2cc(C)[nH]c(=O)n2)cc1`, the “activity change, positive = activation” value was inactive: -8.47%.

With `Cc1nn(-c2ccccc2)c2nc(C3CC3)cc(C(=O)Nc3ccccc3F)c12`, the “activity change, positive = activation” value was inactive: -33.1%.

Consider `Cc1cccc(NC(=O)CCc2c(C)nc3nc(CNC(=O)c4cccc(F)c4)nn3c2C)c1`, for which the “activity change, positive = activation” value was inactive: -1.53%.

As for `Cc1oc(-c2ccccc2)nc1CCC(=O)c1ccc(CC2SC(=O)NC2=O)cc1` (stereo not given), the “activity change, positive = activation” value was inactive: -27.7%.

Turning to `COc1ccc(Cn2c(SCc3ccc(C(=O)NC4CCCC4)cc3)nc3cccnc32)cc1`, the “activity change, positive = activation” value was inactive: -29.9%.

As to `COc1ccc(-c2noc(CSc3nnc(-c4ccncc4)n3-c3ccc(C)cc3)n2)cc1OC`, the “activity change, positive = activation” value was inactive: -10.6%.

Regarding `O=C(Cn1c(=O)n(Cc2ccc3c(c2)OCO3)c(=O)c2oc3ccccc3c21)Nc1ccc(F)cc1`, the “activity change, positive = activation” value is inactive: -13.4%.

In the case of `CCOc1ccccc1NC(=O)c1c(NC(=O)c2ccccc2)sc2c1CCCC2`, the “activity change, positive = activation” value was inactive: -15.1%.

For `CCOc1ccccc1CNC(=O)c1cnc2sc(N3CCCCCC3)nn2c1=O`, the “activity change, positive = activation” value was inactive: -29.5%.

For the compound `O=C(Cn1cc(SCc2cccc(Cl)c2)c2ccccc21)N1CCCCCC1`, the “activity change, positive = activation” value was inactive: -5.26%.

Take `CCc1ccc(Oc2c(C(F)(F)F)oc3c(CN4CCN(C)CC4)c(O)ccc3c2=O)cc1`: the “activity change, positive = activation” value was inactive: -12.1%.

Consider `CC(C)(C)c1ccc(-c2nc3cc(NC(=O)c4cccc(Br)c4)ccc3o2)cc1`, for which the “activity change, positive = activation” value is inactive: -4.42%.

The values are drawn from PubChem BioAssay AID1508624 (National Center for Advancing Translational Sciences (NCATS), 2021).
